# According to the supplement of paper PMC3334620:
# Whole data set: some 33,000 sequences, median “E-score (-0.5 to 0.5)” near -0.053, cut for the highest 2% near 0.37. Some of the results follow.
# Target: Hap1 (UniProt P0CE41)
# Assay: PBM E-score (8-mer binding enrichment) (E-score (-0.5 to 0.5)); higher = stronger / more preferred TF binding; most listed sequences are background and not binding sites
# Conditions: protein concentration: 200 nM; construct: GST-DNA-binding domain
# Procedure, shortened: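 Universal all-10-mer Agilent arrays, double-stranded by primer extension on fresh or once-stripped slides, were probed with about 100-200 nM GST-tagged yeast transcription factors made by PURExpress. Fluorescent anti-GST detected bound protein, and masliner normalised the scans. E-scores from the Universal PBM Analysis Suite were given to each ungapped eight-base word pooled with its reverse complement.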
# UniProt P0CE41, sequence (P0CE41 whole entry): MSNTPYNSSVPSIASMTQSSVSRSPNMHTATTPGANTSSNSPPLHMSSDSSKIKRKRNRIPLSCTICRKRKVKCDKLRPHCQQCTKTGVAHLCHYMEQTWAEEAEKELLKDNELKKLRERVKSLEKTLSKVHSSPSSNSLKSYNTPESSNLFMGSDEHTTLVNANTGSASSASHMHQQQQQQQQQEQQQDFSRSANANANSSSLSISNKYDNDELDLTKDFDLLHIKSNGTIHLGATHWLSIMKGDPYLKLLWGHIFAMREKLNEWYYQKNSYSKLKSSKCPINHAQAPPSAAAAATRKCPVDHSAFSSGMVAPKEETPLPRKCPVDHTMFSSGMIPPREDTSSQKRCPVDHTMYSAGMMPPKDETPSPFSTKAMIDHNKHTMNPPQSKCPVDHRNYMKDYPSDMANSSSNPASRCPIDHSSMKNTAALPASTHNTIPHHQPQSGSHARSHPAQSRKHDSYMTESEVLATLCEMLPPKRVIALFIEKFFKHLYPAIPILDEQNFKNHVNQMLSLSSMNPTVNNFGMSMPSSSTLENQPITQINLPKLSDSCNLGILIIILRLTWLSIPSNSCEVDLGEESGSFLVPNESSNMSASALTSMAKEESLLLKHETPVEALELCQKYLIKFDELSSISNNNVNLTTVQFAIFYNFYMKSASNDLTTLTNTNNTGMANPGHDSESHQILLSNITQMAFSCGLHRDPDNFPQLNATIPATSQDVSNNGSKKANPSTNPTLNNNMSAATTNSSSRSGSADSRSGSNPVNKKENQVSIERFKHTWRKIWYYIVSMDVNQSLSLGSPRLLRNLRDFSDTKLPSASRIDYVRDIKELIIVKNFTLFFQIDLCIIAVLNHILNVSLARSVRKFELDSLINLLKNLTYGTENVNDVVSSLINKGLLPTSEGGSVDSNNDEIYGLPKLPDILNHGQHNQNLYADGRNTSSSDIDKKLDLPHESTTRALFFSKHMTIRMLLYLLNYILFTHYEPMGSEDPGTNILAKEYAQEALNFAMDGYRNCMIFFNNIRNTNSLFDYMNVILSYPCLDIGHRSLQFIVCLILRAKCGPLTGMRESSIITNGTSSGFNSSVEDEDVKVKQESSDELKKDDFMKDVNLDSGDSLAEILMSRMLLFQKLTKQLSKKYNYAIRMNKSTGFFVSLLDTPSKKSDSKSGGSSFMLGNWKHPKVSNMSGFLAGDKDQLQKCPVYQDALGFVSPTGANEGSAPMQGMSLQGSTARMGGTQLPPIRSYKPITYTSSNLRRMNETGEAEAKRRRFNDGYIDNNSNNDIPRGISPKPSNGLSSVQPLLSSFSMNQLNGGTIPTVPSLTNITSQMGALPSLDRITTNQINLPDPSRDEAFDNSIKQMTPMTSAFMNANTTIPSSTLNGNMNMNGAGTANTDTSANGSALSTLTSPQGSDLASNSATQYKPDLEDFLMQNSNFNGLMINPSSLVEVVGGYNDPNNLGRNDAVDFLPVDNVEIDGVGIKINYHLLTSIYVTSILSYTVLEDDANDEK
row,Sequence,PBM E-score
1,CCGTCATC,0.173
2,AGATTAGA,-0.145
3,GAGCTGCA,-0.00591
4,AAGTTCGT,-0.181
5,ATGACCTA,-0.119
6,CGCGCCCC,0.202
7,ACTAATCT,0.122
8,CATCCGCC,0.244
9,AGGCTGGA,-0.281
10,ACACGATC,-0.0737
11,GAATCGGC,0.341
12,CAAAGACC,-0.00942
13,CACCCATA,-0.267
14,GATGGACA,-0.113
15,CCAGGTTA,-0.202
16,GTTCAAAA,0.0109
17,ACCCTGAG,-0.175
18,GACGCACA,0.0187
19,ATAACTAG,-0.0842
20,CTATGATC,-0.0588
21,ACACCTCA,-0.254
22,ACCGGCTC,0.279

row,Sequence,PBM E-score
1,ACTCTCGG,0.348
2,TCCGAAAA,0.393
3,ACGTGACC,-0.139
4,GTGAGAGA,-0.0626
5,CATCTGAG,-0.216
6,AGGGGTGC,-0.317
7,GATAAGCA,0.147
8,ACGCAGCA,-0.121
9,AGGCACAC,-0.148
10,CTCCGCAA,0.259
11,CGTTTATA,0.136
12,AGAAGATA,0.128
13,CCATTAAA,0.0191
14,CACTGGCC,-0.0906
15,CCTCGAGG,-0.304
16,CTTCCGGC,0.275
17,CGATACTA,0.21
18,AGCTTCGG,0.292
19,ATGATTGC,-0.039
20,CACTATCG,0.167
21,TGATGGCA,-0.177
22,GACTAACC,-0.00978

row,Sequence,PBM E-score
1,GCTGCTTA,-0.0741
2,ACATAGTG,0.0008
3,CCGTTTTA,0.254
4,CCAATTGG,-0.226
5,CGCTCGAA,0.104
6,ACAAACCG,0.12
7,GACAAGTA,0.0622
8,AAACCACA,-0.0624
9,AGAGCTTC,-0.12
10,AGGTCCTG,-0.0186
11,ACGAAACG,-0.0502
12,CACTCAAC,-0.0685
13,GGTGGATA,0.00336
14,TAGATAAA,0.0219
15,CACCGGGG,0.339
16,GATACTGC,-0.0243
17,AGACGTCC,0.00542
18,ATCTGAAA,-0.05
19,CCCTGTAG,0.0186
20,CGGTGGGA,0.0972
21,CCCACAAC,-0.162
22,ATAGGCCA,0.109

row,Sequence,PBM E-score
1,AAAACTCT,-0.127
2,CACTCGCA,-0.0612
3,ATTCACTG,-0.23
4,AGCGTGCA,-0.0508
5,CTAATGGC,0.014
6,CAATTGGA,-0.157
7,ATGGTTTC,-0.0197
8,ACCGGGCG,0.385
9,ATGCTAGC,0.0591
10,AGTACTGA,-0.182
11,AATCAGTC,-0.116
12,CAGACCGC,0.156
13,ACTATCAG,-0.256
14,CACATTCA,-0.14
15,CCAAAAAC,0.0207
16,AGATCTCG,0.0764
17,AAGCAAGA,-0.126
18,ACCATTGA,-0.256
19,CTTATAGA,-0.153
20,TAAGTCAA,-0.235
21,GACAATCC,0.113
22,GTATCGTA,-0.168

row,Sequence,PBM E-score
1,GCCTACGA,-0.0526
2,ACCACGCC,-0.0562
3,TCGACCGA,0.393
4,CGGCCCGA,0.398
5,CAACCCCC,-0.182
6,CGAATAAG,0.0623
7,CAACACGA,-0.182
8,CAAGTCCA,-0.222
9,AACGCAAG,-0.183
10,AGGAGAAG,-0.149
11,AATAATAT,0.22
12,CTTGTCAA,-0.0852
13,AGCCATTC,-0.142
14,AGTACGAC,0.0148
15,CCACATGG,-0.185
16,CACGTGTA,-0.109
17,GACATCTA,-0.0742
18,AAGTCTGA,-0.412
19,CGAGGCCG,0.158
20,CTAGGGAC,-0.246
21,CAGCCATA,-0.136
22,CACAGAAC,-0.226
